The record followed here is ChEMBL document CHEMBL4888484, “Replenishing the malaria drug discovery pipeline: Screening and hit evaluation of the MMV Hit Generation Library 1 (HGL1) against asexual blood stage Plasmodium falciparum ,using a nano luciferase reporter read-out” (2022).

The campaign covered roughly 150,000 compounds. About 540 (0.36%) showed an effect of 50% or more. Some of the results follow.

The experiment relates to Plasmodium falciparum. As to the kind of experiment: Primary screen in NF54 nanoGlo assay, in single point, at 2uM, 72h; a lower Z score goes with more inhibition. Type of experiment: functional, Erythrocyte. The following applies: timepoint 72 hour.
Consider `Cc1n[nH]c(C)c1CNCc1ccc(N(C)C)nc1`, for which the % Inhibition (usually the drop in the measured response relative to a control, in per cent) is -1% and the Z score came out at 0.13.

For `Cc1cc(F)ccc1C(=O)NC[C@H]1CCN(c2cnn(C)c(=O)c2)C1`, the “% Inhibition” value was 2% and the Z score is reported as -0.22.

Consider `COc1ccc(CCNC(=O)c2cc3n(n2)CCN(Cc2cccc(F)c2)C3=O)cc1OC`, for which the “% Inhibition” value is 31% and the Z score is given as -1.58.

For the molecule `C[C@]1(O)C[C@@H](NC(=O)c2cc(Br)ccc2O)C1`, the “% Inhibition” value is recorded as -13% and the Z score was 2.22.

For `c1ccc(-c2cc3c(n2C2CCCCC2)[C@@H](c2ccccc2)Oc2ccccc2-3)cc1`, the “% Inhibition” value is reported as -3% and the Z score turned out to be 0.38.

On to `COc1ccc(F)c(CN2CC[C@]3(C2)CN(C)C(=O)CO3)c1`, for which the “% Inhibition” value is recorded as -10% and the Z score was 1.37.

Turning to `COc1ccc(C(=N)NOC(=O)Oc2ccccc2)cc1OC`, the “% Inhibition” value was found to be 1% and the Z score is -0.11.

For `COC(=O)c1cn(NC(=O)[C@H](C)O)cc2c(O)nnc1-2`, the “% Inhibition” value was -1% and the Z score amounted to 0.11.

On to `CCC(CC)C(=O)N(Cc1ccc(-c2ccc(Cl)cc2)o1)[C@H]1CCS(=O)(=O)C1`, for which the “% Inhibition” value is -7% and the Z score stood at 0.86.

With `O=C1OCc2cc(NC(=O)N3CCC4(CC3)c3ccccc3C[C@@H]4O)ccc21`, the “% Inhibition” value is given as 5% and the Z score is recorded as -0.85.

Consider `c1ncn(-c2ccc(N3CCC(N4CC(N5CCOCC5)C4)CC3)cc2)n1`, for which the “% Inhibition” value is on record as -3% and the Z score was 0.39.

On to `Cc1nn(C)c(C)c1[C@@H](NCc1nc(C2CC2)nn1C)C(F)(F)F`, for which the “% Inhibition” value is reported as 7% and the Z score was -1.32.

Regarding `O=C(NCc1ccc(F)c(Cl)c1)N1CCOC2(CNC2)C1`, the “% Inhibition” value turned out to be 0% and the Z score amounted to 0.02.

Consider `Cc1[nH]nc(-c2cccc(F)c2)c1NC(=O)c1ccc2c(c1)OCO2`, for which the “% Inhibition” value is recorded as 1% and the Z score was -0.1.

For the molecule `Cc1cc(NS(=O)(=O)c2c(C)n[nH]c2C)ccc1N1CCCC1=O`, the “% Inhibition” value is -2% and the Z score is 0.25.

As to `COc1ccc(NC(=O)Cn2cc(-c3ccccc3)c(N(C)C)n2)cc1`, the “% Inhibition” value was -5% and the Z score was 0.68.

For `CCCCc1noc(Cn2cnc3c2c(=O)n(C)c(=O)n3C)n1`, the “% Inhibition” value is -8% and the Z score is listed as 1.07.

For `OCc1ccccc1-c1cccc2cccnc12`, the “% Inhibition” value is listed as -8% and the Z score is given as 1.44.

As to `CN(CCc1ccccn1)C(=O)c1cc(COc2ccc3c(c2)OCO3)[nH]n1`, the “% Inhibition” value is on record as -1% and the Z score turned out to be 0.1.

`CN(C)S(=O)(=O)N1CCC(c2cc(C(=O)NCC(F)(F)F)[nH]n2)CC1`: the “% Inhibition” value amounted to 12% and the Z score is recorded as -1.54.

As to `CC[C@@]1(O)COC2(CN(C(=O)CCc3conc3-c3ccccc3F)C2)C1`, the “% Inhibition” value was -5% and the Z score was found to be 0.73.

Consider `C#CCOc1ccc2ccccc2c1[C@@H]1NC(=O)c2cccnc2N1`, for which the “% Inhibition” value is reported as 38% and the Z score is listed as -4.85.

Take `CCc1c(C(=O)N(CC)CC)c(=O)cc(C)n1Cc1cccs1`: the “% Inhibition” value was -9% and the Z score worked out at 1.16.

Consider `CCCc1cc(CCC)n2cc(Cc3cn4c(CCC)cc(CCC)nc4n3)nc2n1`, for which the “% Inhibition” value stood at 1% and the Z score is -0.15.

On to `CCOC(=O)CN(c1cc(F)cc(F)c1)S(=O)(=O)c1cccn2cnnc12`, for which the “% Inhibition” value was found to be 4% and the Z score is on record as -0.52.

Regarding `COc1cc2c(cc1CNC(=O)N1CCN3C(=O)OC[C@H]3C1)OCCO2`, the “% Inhibition” value is -9% and the Z score was 1.61.

On to `COc1ccc2c(c1)C(N1CCCN(C(=O)CC3CCCC3)CC1)=Nc1cc(C(F)(F)F)ccc1O2`, for which the “% Inhibition” value is -3% and the Z score was determined as 0.4.

For the molecule `CCC(C)(C)COC(=O)c1csc(COC)n1`, the “% Inhibition” value is -1% and the Z score came to 0.09.

For `COc1ccc(NC(=O)Cn2ccc3ccn(Cc4ccccc4)c3c2=O)cc1`, the “% Inhibition” value was 10% and the Z score was -1.17.

For the molecule `O=C(NCCn1ccccc1=O)c1cnn2c1OCCC2`, the “% Inhibition” value was -11% and the Z score came to 1.43.

With `CC(C)CC[C@@]1(C2CCNCC2)NC(=O)N(CC2CC2)C1=O`, the “% Inhibition” value was -17% and the Z score came to 1.65.

Turning to `O=C1CCN(C(=O)c2ccc(-c3ccc4c5c(cccc35)CC4)cc2)CCN1`, the “% Inhibition” value came out at 0% and the Z score was found to be 0.03.

With `CCC(C)NC(=O)C(C)NC(=O)CCc1ccccn1` (stereo not given), the “% Inhibition” value is reported as -8% and the Z score is 1.41.

For the molecule `Cc1nc(-c2cc(C)sc2NC(=O)C(C)(C)C)n(-c2ccccn2)n1`, the “% Inhibition” value is 1% and the Z score was -0.09.

Regarding `CN(Cc1ncc(C2CC2)o1)C(=O)C1CC1c1ccc(Br)cc1` (stereo not given), the “% Inhibition” value is -3% and the Z score is on record as 0.35.

Consider `O=C(CCc1ccsc1)Nc1nc(C2CC2)no1`, for which the “% Inhibition” value is on record as -2% and the Z score is on record as 0.23.

Turning to `CC1CN(C(=O)COCC(F)(F)F)C(C)CO1` (stereo not given), the “% Inhibition” value is reported as -4% and the Z score is 0.69.

Take `Cn1c(=O)c2cn(S(=O)(=O)c3ccc(Cl)cc3)nc2n(C)c1=O`: the “% Inhibition” value is reported as -4% and the Z score is listed as 0.48.

On to `CN(C(=O)[C@H]1CCCN(C2CCN(Cc3ccncc3)CC2)C1)C1CCCCCC1`, for which the “% Inhibition” value is given as -4% and the Z score was 0.61.

Take `Cc1cc(-c2nnc(N)o2)nn1C(C)C`: the “% Inhibition” value came to 7% and the Z score is reported as -0.9.

Regarding `O=C(CN1CCc2nc(NC(=O)c3cnccn3)sc2C1)NCc1ccco1`, the “% Inhibition” value was -5% and the Z score is 0.86.

In the case of `O=C(CN1C(=O)CN(c2ccccc2)C1=O)N1CCc2sccc2C1`, the “% Inhibition” value is listed as -11% and the Z score came out at 1.92.

For the molecule `CC(C)C1CC(NS(=O)(=O)c2c(Cl)cnn2C)CCO1` (stereo not given), the “% Inhibition” value is -1% and the Z score is on record as 0.18.

For the molecule `Cc1csc(C(C)(C)NCC(=O)N[C@@H](C)c2cccs2)n1`, the “% Inhibition” value is recorded as -3% and the Z score worked out at 0.6.

`CCc1nc2cc(C(=O)N(C)CC3CCN(C)CC3)cc(NC(=O)c3ccccc3OC)c2n1C`: the “% Inhibition” value was -20% and the Z score was 2.21.

Regarding `C[C@@]1(C(=O)N2CCn3nc(C#N)cc3C2)CCCO1`, the “% Inhibition” value is -5% and the Z score is on record as 0.57.

Turning to `CC(C)c1c(C(=O)NC[C@H]2CCCO2)cnn1-c1ccccc1`, the “% Inhibition” value is -7% and the Z score turned out to be 0.67.

Consider `O=C1CCOCCN1Cc1c(F)cccc1Cl`, for which the “% Inhibition” value is reported as -22% and the Z score was found to be 2.1.

On to `CC(=O)N[C@H](C(=O)Nc1ccc(C)cc1Cl)C(C)C`, for which the “% Inhibition” value was -12% and the Z score is given as 1.95.

On to `CCc1nnc(COc2ccc3c(c2)CCNC3=O)o1`, for which the “% Inhibition” value is on record as -2% and the Z score is 0.47.

In the case of `Cn1nc(C(=O)N2CCCCCO2)ccc1=O`, the “% Inhibition” value is given as -10% and the Z score is recorded as 2.06.

On to `NC(=O)Cn1nc(-c2ccccc2)n(CCc2ccccc2)c1=O`, for which the “% Inhibition” value is on record as -11% and the Z score is on record as 0.99.

Regarding `COCCn1ccnc1CN(C)Cc1cnccn1`, the “% Inhibition” value was -7% and the Z score stood at 1.32.

Take `O=C(NCc1ccco1)N[C@H]1CCOC[C@@H]1OCc1ccccn1`: the “% Inhibition” value is listed as -2% and the Z score was 0.47.

For the molecule `CCOc1ccc(C(=O)NCC(=O)Nc2cc(C)n[nH]2)cc1`, the “% Inhibition” value is reported as -18% and the Z score worked out at 1.84.
